Test results reported in article PMC6919601, “Identification of Plasmodium dipeptidyl aminopeptidase allosteric inhibitors by high throughput screening” (PLoS ONE, 2019).
In all, about 110,000 compounds went through this assay and about 230 (0.21%) showed an effect of 50% or more. The list shows a part of the results.

target: DPAP1 (Plasmodium falciparum, UniProt Q8IIJ9); assay: primary screen, percent inhibition; read by cleavage of a fluorogenic dipeptide substrate; higher = more effect of the substance; set-up: species or system P. falciparum D10 trophozoite lysates; single well
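Further: 30 min substrate incubation versus DMSO and 10 µM JCP410 controls.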

DPAP1, sequence (Q8IIJ9 whole entry, looked up): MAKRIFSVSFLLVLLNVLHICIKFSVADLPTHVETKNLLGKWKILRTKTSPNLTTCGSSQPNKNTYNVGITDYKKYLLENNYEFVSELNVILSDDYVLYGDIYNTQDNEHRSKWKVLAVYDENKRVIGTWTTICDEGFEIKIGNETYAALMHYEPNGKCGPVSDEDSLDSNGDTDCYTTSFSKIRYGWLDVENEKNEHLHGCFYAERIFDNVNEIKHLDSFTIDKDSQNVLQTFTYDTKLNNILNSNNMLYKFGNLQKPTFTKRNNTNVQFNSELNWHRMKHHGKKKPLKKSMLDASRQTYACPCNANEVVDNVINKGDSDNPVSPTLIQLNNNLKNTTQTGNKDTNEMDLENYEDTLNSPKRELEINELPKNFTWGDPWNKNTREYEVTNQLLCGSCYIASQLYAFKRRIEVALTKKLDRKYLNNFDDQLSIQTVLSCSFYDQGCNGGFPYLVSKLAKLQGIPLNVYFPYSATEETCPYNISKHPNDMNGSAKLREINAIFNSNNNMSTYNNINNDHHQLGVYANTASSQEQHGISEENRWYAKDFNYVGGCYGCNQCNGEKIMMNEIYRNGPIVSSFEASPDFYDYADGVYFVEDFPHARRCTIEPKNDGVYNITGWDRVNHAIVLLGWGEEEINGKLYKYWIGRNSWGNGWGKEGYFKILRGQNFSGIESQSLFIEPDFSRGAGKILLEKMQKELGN

Row | Structure (SMILES) | % Inhibition @ 10 uM [%]
1 | CCn1cc(C(C)NC(=O)c2cc(-c3cccc(C)c3)nc3ccccc23)c(C)n1 (centres unmarked) | -4.84
2 | O=c1ccccn1Cc1ccccc1F | -1.52
3 | CCCCNC(=S)NC12CC3CC(CC(C3)C1)C2 | -0.415
4 | COc1ccccc1NC(=O)c1ccccc1NC(=O)c1ccccc1C(=O)O | -9.82
5 | CC(NC(=O)C(Cc1ccccc1)n1cccc1)c1ccccc1 (centres unmarked) | -0.692
6 | O=C(Cc1ccccc1)N1CCN(Cc2ccc(F)cc2)CC1 | -7.14
7 | CC1=NN(C(=O)COc2ccc(Cl)c(Cl)c2)C(O)(C(F)(F)F)C1 (centres unmarked) | -5.34
8 | CCOc1ccc(N2C(=O)CC(NC3CCCCCCC3)C2=O)cc1 (centres unmarked) | 6.48
9 | N=C1/C(=C\c2ccc(SCc3ccco3)o2)C(=O)N=C2SC(N3CCCC3)=NN12 | 15.7
10 | CCOC(=O)CNC(=O)NC(C)c1ccccc1 (centres unmarked) | -4.35
11 | COc1ccccc1CNC(=O)C(CC1CCCCC1)C(=O)NCC#N (centres unmarked) | -11
12 | CN(C)c1ccc(C2C(C#N)=C(N)N(c3ccccc3)C3=C2C(=O)CC(C)(C)C3)cc1 (centres unmarked) | 1.08
13 | Brc1cccc(CNC2CCN(CCc3ccccc3)CC2)c1 | -2.95
14 | COC(=O)c1[nH]c2ccccc2c1C=C1C(=O)N(C)C(=O)N(C)C1=O | 5.77
15 | CC(C)NCC(O)COc1ccc(C(C)C)cc1 (centres unmarked) | -3.93
16 | O=C(O)c1ccc(NC(=O)c2cccc(C(=O)Nc3ccc(C(=O)O)cc3)c2)cc1 | 1.64
17 | O=C(O)c1cc(-c2cccc(Cl)c2)nc2ccccc12 | 2.93
18 | N#Cc1c(N)nc2c(c1-c1cccs1)CCCC2 | -8.28
19 | COc1ccccc1CNC(=O)Cn1cc2c(n1)-c1c(oc(C(=O)N3CCCC3)c1C)CC2 | -3.46
20 | COc1cc(NS(=O)(=O)c2ccc(C)cc2)c2ncccc2c1 | -12
21 | COc1ccc(NC(=O)c2ccc([N+](=O)[O-])cc2C(=O)O)c([N+](=O)[O-])c1 | -1.42
22 | CC1(C)CC(=O)C(C(C2=C(O)CC(C)(C)CC2=O)c2ccncc2)C(=O)C1 (centres unmarked) | 0.716
23 | CC(C)(C)OC(=O)N1CCC[C@H]1C(=O)NCc1ccccc1 | 1.96
24 | CCCOc1ccc(Cc2nn3c(=O)/c(=C\c4cccs4)sc3nc2=O)cc1 | -4.14
25 | O=C(c1ccc(Cl)cc1)C(Oc1ccc(Cl)cc1)n1cncn1 (centres unmarked) | -1.84
26 | CCOc1ccc(Nc2nc(-c3ccncc3)cs2)cc1 | 5.16

Row | Structure (SMILES) | % Inhibition @ 10 uM [%]
27 | CCOC(=O)c1c(NC(=O)c2cccc(C)c2)sc2c1CCC(C)C2 (centres unmarked) | -5.9
28 | COC(=O)/C(=C\C(=O)c1ccccc1)Nc1ccc(OC)cc1 | -0.807
29 | c1ccc(CN2CCN(CC(c3ccccc3)c3ccccc3)CC2)cc1 | 4.55
30 | COc1ccc2c(Sc3ccccc3)c(C(=O)N3CCN(C)CC3)[nH]c2c1 | -0.229
31 | O=C1NC(=O)/C(=C\c2cccn2-c2ccccc2F)N1 | 2.76
32 | Cc1ccc(CNC(C)Cc2ccccc2)o1 (centres unmarked) | -0.262
33 | O=C(Nc1cccc2ccccc12)c1cccnc1Cl | -5.54
34 | CCOc1c([N+](=O)[O-])cc2c(C)c(C(=O)N3CCOCC3)oc2c1OCC | -0.999
35 | CCCc1nn2cc(-c3ccccc3)nc2s1 | -4.54
36 | CCOc1cc(C2C(C#N)=C(N)Oc3[nH]nc(C)c32)ccc1OCCN1CCOCC1 (centres unmarked) | 0.121
37 | O=S(=O)(Nc1ccc2c(c1)OCCO2)c1ccc(-c2ccccc2)cc1 | 4.67
38 | CCc1cccc(NC(=O)c2ccc(OC(F)F)cc2)c1 | 2.4
39 | CC(C(=O)NC1CCN(Cc2ccccc2)CC1)n1ncn2cccc2c1=O (centres unmarked) | 0.371
40 | OC1CCN(Cc2cccc(Cl)c2)CC1 | -1.93
41 | CCCCCCCCc1ccc(-c2ccc(C(N)=O)cc2)cc1 | 0.912
42 | COc1ccc(NC(=O)C(C(=O)Nc2ccc(OC)cc2)C23CC4CC(CC(C4)C2)C3)cc1 | -6.82
43 | CC1CCCN(S(=O)(=O)c2ccc(-c3ccc(O)nn3)o2)C1 (centres unmarked) | -3.84
44 | CC(=O)Nc1cccc(C2=Nc3ccccc3SC(c3cccs3)C2)c1 (centres unmarked) | 0.389
45 | Cc1ccc(C#N)c(SCC(=O)O)n1 | -0.771
46 | CCCCNC(=O)CSc1nc2nnc(C)c-2c(N)n1-c1cc(Cl)ccc1C | 4.35
47 | Cc1cccc(N(CC(=O)N2CCCCCC2)S(=O)(=O)c2ccccc2)c1C | 4.57
48 | Cc1c2cnn(CC(=O)N3CCN(C)CC3)c(=O)c2c(C)n1Cc1ccccc1Cl | 2.84
49 | Brc1ccccc1N1CC(c2ccccc2)C(c2cccs2)=N1 (centres unmarked) | 4.55
50 | Nc1c(Cl)cc(N2C(=O)C3CCCCC3C2=O)cc1Cl (centres unmarked) | -1.57
51 | CCCCOc1ccc(-c2ncc(C(=O)O)c(C)n2)cc1 | 7.47
52 | COc1ccc(-c2ncnn2-c2ccc(Cl)cc2)cc1OC | -1.96

Row | Structure (SMILES) | % Inhibition @ 10 uM [%]
53 | O=C(Nc1ccc2c(c1)OCCO2)c1cc(Cl)ccc1Cl | -3.69
54 | Cc1cc(C)c2nc(N3CCC(C(=O)N4CC(C)CC(C)C4)CC3)sc2c1 (centres unmarked) | -3.35
55 | CCc1cc(C(=O)c2ccccc2)c(N)s1 | -0.759
56 | O=C(O)c1cc(N2C(=O)c3ccc([N+](=O)[O-])cc3C2=O)ccc1O | -2.63
57 | CN1C(=O)/C(=C/c2cccs2)S/C1=N/c1cccc(C(=O)O)c1 | 14.4
58 | COc1ccc(CON=C(N)N)cc1 | 0.193
59 | COCc1cc(C)n(CC(=O)N2CCCC2)c(=O)c1C#N | 1.76
60 | Cc1ccccc1OCc1nc2c3cnn(C)c3ncn2n1 | -1.11
61 | CSc1ccccc1NC(=O)c1cccc(COCC(F)(F)C(F)F)c1 | -7.02
62 | CCc1nnc(NC(=O)Cn2ncc3c2-c2ccccc2OC3)s1 | -6.3
63 | COc1ccc(-c2csc(/C(C#N)=C/c3cccc(Cl)c3)n2)cc1 | 0.912
64 | COc1ccc(N2C(=O)c3ccccc3NC2c2ccccc2F)cc1 (centres unmarked) | -4.39
65 | O=c1c2c([nH]c(=S)n1Cc1ccccc1)-c1ccccc1CC2C1CCCCC1 (centres unmarked) | 3.01
66 | COc1ccccc1CNC(=O)c1cc(O)nc2ccc(S(=O)(=O)N3CCCCC3C)cc12 (centres unmarked) | 2.05
67 | COc1ccc(/C=C(/C#N)c2nc(-c3ccc(C)cc3)cs2)cc1 | 1.76
68 | CCCCOC(=O)N1C2C=CC(C2)C1(C(F)(F)F)C(F)(F)F (centres unmarked) | -4.35
69 | CCCc1c(C)nc2ccccc2c1S | -0.941
70 | N#C/C(=C\c1cccs1)c1nc(-c2ccc(Br)cc2)cs1 | -2.44
71 | COCCNc1nc2ccccc2n2cnnc12 | -2.42
72 | COc1ccc(/C(O)=C/C=N/c2ccc(Cl)cc2)cc1OC | 0.851
73 | N#C/C(=C\Nc1cnc2ccccc2c1)C(=O)NC(=O)Cc1ccccc1 | -8.71
74 | Cc1nnc(N2C(=O)C(O)=C(C(=O)c3ccc(Cl)cc3)C2c2ccc(C(C)(C)C)cc2)s1 (centres unmarked) | 3.8
75 | O=C(NCc1cccs1)c1cc(-c2ccccc2)on1 | -3.56
76 | CCc1nn(CC(=O)NCCC2=CCCCC2)c(=O)c2cc3sccc3n12 | -5.19
77 | CCCCCN(C(=O)NC(=O)NC1=C(C(=O)OC)SCC1)S(=O)(=O)c1ccccc1 | -4.27
78 | N#CCNC(=O)C(Cc1ccccc1)NC(=O)c1ccc(-c2csc(NC(=N)N)n2)cc1 (centres unmarked) | -16.9

Row | Structure (SMILES) | % Inhibition @ 10 uM [%]
79 | c1ccc2c(c1)nnn2CN1CCOCC1 | -0.615
80 | CC(NC(=O)C(=O)NCc1ccncc1)c1ccccc1 (centres unmarked) | -5.26
81 | CCCCOc1ccc(C(O)(CCN2CCOCC2)c2ccccc2)cc1 (centres unmarked) | 2.16
82 | CCOC(=O)c1ccc(NC(=O)/C=C/c2ccc(C(C)C)cc2)cc1 | 0.317
83 | O=C(Nc1nc2c(s1)CCc1ccccc1-2)c1cccnc1 | 2.22
84 | CCCC1CCc2c(sc(NC(=O)C3CCCO3)c2C(N)=O)C1 (centres unmarked) | 1.57
85 | CCOC(=O)c1c(C)[nH]c(C)c1S(=O)(=O)N(C)CC(=O)Nc1nc2ccc(OC)cc2s1 | -7.09
86 | COc1ccc(-c2nnc3n(Cc4ccc(C)cc4)c(=O)c4ccccc4n23)c(O)c1 | 4.86
87 | O=C(O)CSc1nc(SCC(=O)O)c2ccccc2n1 | 2.09
88 | CC1(C)CN=C(NCc2cccnc2)S1 | 3.36
89 | COc1ccccc1OCC(=O)N(Cc1sccc1C)C1CCS(=O)(=O)C1 (centres unmarked) | 1.99
90 | Cc1ccc2onc(CNC(=O)NCCCN(Cc3ccco3)C3CCCC3)c2c1 | -1.11
91 | N#Cc1c(N)nc2c(c1-c1cccc(Br)c1)CCCC2 | 4.93
92 | CCOC(=O)c1c(NC(=O)CC(NC(=O)C(F)(F)F)c2ccccc2)sc2c1CCC2 (centres unmarked) | 7.5
93 | Fc1ccc(CN2CCN(c3ccccc3F)CC2)c(F)c1 | -1.77
94 | O=C(Nc1ccc(S(=O)(=O)Nc2ncccn2)cc1)c1ccc(Br)o1 | -3.45
95 | Cn1c(=O)n(CCc2ccccc2)c(=O)c2c1nc1n2CCN1Cc1ccccc1 | 3.57
96 | Cc1nn(C(C)C(=O)NCCCN2CCc3ccccc3C2)c(=O)c2nn(-c3ccccc3)c(C)c12 (centres unmarked) | 2.48
97 | COc1ccc(CCNC(=O)C2CCCN(C(=O)c3cc4sccc4n3C)C2)cc1OC (centres unmarked) | -7.48
98 | O=C(NCCCN1CCC(Cc2ccccc2)CC1)C1CCCN(S(=O)(=O)N2CCOCC2)C1 (centres unmarked) | -3.16
99 | CC1CN(C(=O)c2ccc(COc3cccc4ccccc34)cc2)CC(C)O1 (centres unmarked) | -5.19
100 | CCN(CC)C(C)C(=O)NCC1(c2ccccc2)CCOCC1 (centres unmarked) | -10.5
101 | COc1ccc(CCNC(=O)CSc2nnc(CNC(=O)c3cccs3)o2)cc1OC | -3.62
